Data published in paper PMC4336329 (PLoS ONE, 2015).
Out of some 310,000 compounds screened, about 14,000 (4.5%) showed an effect of 50% or more. Effects have a minus sign here. The list shows a part of the results.

Each compound was assayed against human ether-à-go-go-related gene (hERG) potassium channel (human, UniProt Q12809) (assay: primary screen, population patch clamp on CHO cells stably expressing hERG).
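Note: peak tail current of the secondary pulse compared with the same well before compound.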

Chain of human ether-à-go-go-related gene (hERG) potassium channel (Q12809 whole entry, looked up): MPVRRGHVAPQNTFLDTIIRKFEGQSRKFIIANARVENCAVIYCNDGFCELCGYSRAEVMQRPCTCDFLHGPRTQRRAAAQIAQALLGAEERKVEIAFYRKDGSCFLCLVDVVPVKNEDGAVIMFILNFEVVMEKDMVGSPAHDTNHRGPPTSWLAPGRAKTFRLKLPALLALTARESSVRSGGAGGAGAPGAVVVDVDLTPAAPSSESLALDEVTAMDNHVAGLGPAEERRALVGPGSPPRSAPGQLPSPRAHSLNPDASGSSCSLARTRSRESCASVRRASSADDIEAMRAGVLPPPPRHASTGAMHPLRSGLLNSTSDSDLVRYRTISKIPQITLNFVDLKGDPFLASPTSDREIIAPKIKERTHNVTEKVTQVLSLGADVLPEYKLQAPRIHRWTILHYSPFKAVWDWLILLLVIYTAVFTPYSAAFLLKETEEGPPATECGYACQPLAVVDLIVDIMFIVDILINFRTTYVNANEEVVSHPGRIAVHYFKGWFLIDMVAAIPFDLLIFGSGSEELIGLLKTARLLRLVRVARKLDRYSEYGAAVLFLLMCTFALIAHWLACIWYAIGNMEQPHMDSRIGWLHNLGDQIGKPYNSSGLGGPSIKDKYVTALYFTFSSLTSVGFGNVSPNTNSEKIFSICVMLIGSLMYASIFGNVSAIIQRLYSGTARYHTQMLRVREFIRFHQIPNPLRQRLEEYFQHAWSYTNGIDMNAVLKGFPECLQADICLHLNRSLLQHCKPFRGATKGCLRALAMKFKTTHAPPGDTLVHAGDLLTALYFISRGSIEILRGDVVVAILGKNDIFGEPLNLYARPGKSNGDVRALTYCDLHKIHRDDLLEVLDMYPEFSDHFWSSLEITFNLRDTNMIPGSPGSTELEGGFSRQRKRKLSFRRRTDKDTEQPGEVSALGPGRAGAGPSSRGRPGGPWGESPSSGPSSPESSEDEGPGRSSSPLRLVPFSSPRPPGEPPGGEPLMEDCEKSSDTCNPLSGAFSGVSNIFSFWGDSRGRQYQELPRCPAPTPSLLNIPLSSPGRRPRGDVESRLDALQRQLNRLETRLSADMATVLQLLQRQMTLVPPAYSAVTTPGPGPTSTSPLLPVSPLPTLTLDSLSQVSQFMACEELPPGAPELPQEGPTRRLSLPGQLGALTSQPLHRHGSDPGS

Row | Compound | hERG current change (%, negative = inhibition) at 10uM [%]
1 | O=C1CC(c2ccccc2)CC(O)=C1C=NCc1ccc(Cl)c(Cl)c1 (stereo not drawn) | -3.59
2 | Cc1ccc(C(=O)Nc2ccc3c(c2)OCO3)cc1NC(=O)c1ccco1 | -20.8
3 | O=C(NC(=S)Nc1ccc(N2CCOCC2)c(Cl)c1)c1sc2ccccc2c1Cl | -1.86
4 | Cl.OC(COCC1COc2ccccc2O1)CN1CCc2ccccc2C1 (stereo not drawn) | -64.9
5 | COc1cc2c(cc1OC)C(C)N(CC(=O)Nc1ccc(C)c(S(=O)(=O)N3CCOCC3)c1)CC2 (stereo not drawn) | -13.2
6 | COCCn1c(SCC(=O)NNC(=O)c2ccc(OC)c(OC)c2)nc2ccccc2c1=O | -42.2
7 | Cl.OC(COc1ccc2ccccc2c1)CN1CCOCC1 (stereo not drawn) | -8.29
8 | COCc1cc(C)nc(OCC(=O)N/N=C/c2ccc(C)cc2)c1C#N | 10.9
9 | CN(Cc1ccccc1)S(=O)(=O)c1ccc(OCC(=O)N2CCC(C(N)=O)CC2)cc1 | -2.99
10 | Cc1cc(-c2c(C)[nH]n(-c3ccccc3)c2=O)n(-c2ccccc2)n1 | 2.87
11 | Cc1ccc(/C=C2\SC(=S)N(CCCC(=O)N3CCOCC3)C2=O)cc1 | -7.81
12 | COc1ccc(S(=O)(=O)CCC(=O)NCCc2cccc(C)c2)cc1 | -26
13 | CC(=O)c1cccc(NC(=S)NC(=O)c2cccc(Cl)c2)c1 | -3.58
14 | COc1ccc(-c2csc3ncn(Cc4ccccc4)c(=O)c23)cc1 | -0.922
15 | CCc1ccc(N2C(=O)NC(=O)C(Cc3ccc(OC)cc3OC)C2=O)cc1 (stereo not drawn) | 22
16 | Cc1ccc(C)n1-c1sc2c(c1C(=O)O)CCCC2 | 18.7
17 | O=C(NCc1ccc(Cl)cc1)C1CCN(c2nnc(N3CCCC3=O)s2)CC1 | 5.6
18 | COc1cc(CN2CCCC(CO)(Cc3ccccc3C)C2)cc2c1OCO2 (stereo not drawn) | -27.9
19 | COC(=O)c1c(C)nc(C)c2c(=O)oc3ccccc3c12 | -4.32
20 | CCN(CC)S(=O)(=O)c1ccc(N2CCOCC2)c(NC(=O)C23CC4CC(CC(Cl)(C4)C2)C3)c1 | -1.94
21 | CCC1=C(OC(=O)N(CC)CC)N2C(=O)OC(=NCC3CC3)[C@]2(Cc2ccccc2)[C@H]2C1=CC[C@H]1C(=O)NC(=O)[C@H]12 | 8.57

Row | Compound | hERG current change (%, negative = inhibition) at 10uM [%]
22 | COC(OC)C(C)NC(=O)NC(=O)c1ccccc1Cl (stereo not drawn) | 8.81
23 | CCc1cc(C(=O)N2CCN(c3ccccc3OC)CC2)sc1C | -15
24 | COc1cc(C(Nc2ccccn2)c2ccc3ccc(C)nc3c2O)cc(OC)c1O (stereo not drawn) | 4.64
25 | COc1ccc(-n2c(O)c(/C=N/n3cnnc3)c3ccccc3c2=O)cc1 | -1.22
26 | COc1ccc(/C=N/NC(=O)c2ccccc2[N+](=O)[O-])cc1CN1CCc2cc(OC)c(OC)cc2C1C (stereo not drawn) | -63.9
27 | COc1ccccc1C(C)NC(=O)CCOc1cccc(C)c1 (stereo not drawn) | 5.46
28 | COc1ccc(C(CNC(=O)Cc2ccc(Cl)c(Cl)c2)N2CCCCC2)cc1 (stereo not drawn) | -36.5
29 | CCN1C(=O)/C(=C2\C=Cc3ccccc3N2CC)SC1=S | 21.9
30 | CCCCOC(=O)Nc1ccc(OC)cc1S(=O)(=O)N1CCOCC1 | -17.5
31 | C/C(N)=C(/C#N)C(=O)CN1C(=O)NC(Cc2c[nH]c3ccccc23)C1=O (stereo not drawn) | 11.3
32 | O=C(NNS(=O)(=O)c1ccccc1)c1ccc(O)cc1 | 11.4
33 | COc1ccc(-n2c(=O)cc(N3CCN(Cc4ccccc4)CC3)[nH]c2=O)cc1 | 9.28
34 | CCCCNC(=O)CSc1nc2ccc(NC(=O)CSc3nnc(N)s3)cc2s1 | 14.9
35 | CC1=CC(=O)N(c2cccc(C(F)(F)F)c2)C1c1ccc(Cl)cc1 (stereo not drawn) | -5.25
36 | COC(=O)c1ccc(Oc2coc3cc(OCc4cnn(-c5ccccc5)c4)ccc3c2=O)cc1 | 7.07
37 | COc1ccc(CSc2nnc(-c3ccncc3)n2N)cc1 | 10.6
38 | COc1ccc(NC(=O)/C(=C\c2cc(OC)c(OC)cc2[N+](=O)[O-])NC(=O)c2ccccc2)cc1 | -18.4
39 | CC(C)[C@@H](CSc1ccccc1)N1CCN(Cc2ccccc2)CCC1=O | -63.4
40 | CCOc1ccc(NC(=O)CC(NCc2ccccn2)C(=O)O)cc1 (stereo not drawn) | 29.3
41 | COc1cc2cc(Oc3ccc4ccc(=O)oc4c3)c(=O)oc2cc1OC(=O)C=C(C)C | -0.475
42 | Cn1c(=O)c(=O)n(C)c2cc(S(=O)(=O)N3CCCC3C(=O)Nc3ccc(F)cc3)ccc21 (stereo not drawn) | -11.8
